Results on one compound are retold here after patent US7074789B2, “Kinase inhibitors” (Amgen Inc., priority 1999, dated 2006).

Each structure is given as a SMILES string. A number of entries come with more than one value. The other results are left out here. An entry can have further records. The values listed for one entry seem to repeat one measurement (runs, samples, wells or individuals).

For the assay, the target named is T1, EGFR (Homo sapiens, UniProt P00533).
T1 construct: Kinases are expressed as either kinase domains or full length constructs; made in house
In words: Kinase inhibition assay (33P transfer), EGFR. The assay is classed as biochemical. The following applies: Table 2, kinase inhibition class; read-out: EGFR-1. An excerpt:
The inhibitor compounds described herein are screened in the following manner. Kinases suitable for use in the following protocol to determine kinase activity of the compounds described herein include, -but are not limited to: Lck, Lyn, Src, Fyn, Syk, Zap-70, Itk, Tec, Btk, EGFR, ErbB2, Kdr, Flt-1, Flt-3, Tek, c-Met, InsR, and AKT.
Kinases are expressed as either kinase domains or full length constructs fused to glutathione S-transferase (GST) or polyHistidine tagged fusion proteins in either E. colior Baculovirus-High Five expression systems. They are purified to near homogeneity by affinity chromatography essentially as previously described (Lehr et al., 1996; Gish et al., 1995). In some instances, kinases are co-expressed or mixed with purified or partially purified regulatory polypeptides prior to measurement of activity.
Kinase activity and inhibition are measured essentially by established protocols (Braunwalder et al., 1996). Briefly, The transfer of ^33PO4 from ATP to the synthetic substrates poly(Glu, Tyr) 4:1 or poly(Arg, Ser) 3:1 attached to the bioactive surface of microtiter plates serves as the basis to evaluate enzyme activity. After an incubation period, the amount of phosphate transferred is measured by first washing the plate with 0.5% phosphoric acid, adding liquid scintillant, and then counting in a liquid scintillation detector. […]

T1 sequence (P00533 25-1210, species assumed): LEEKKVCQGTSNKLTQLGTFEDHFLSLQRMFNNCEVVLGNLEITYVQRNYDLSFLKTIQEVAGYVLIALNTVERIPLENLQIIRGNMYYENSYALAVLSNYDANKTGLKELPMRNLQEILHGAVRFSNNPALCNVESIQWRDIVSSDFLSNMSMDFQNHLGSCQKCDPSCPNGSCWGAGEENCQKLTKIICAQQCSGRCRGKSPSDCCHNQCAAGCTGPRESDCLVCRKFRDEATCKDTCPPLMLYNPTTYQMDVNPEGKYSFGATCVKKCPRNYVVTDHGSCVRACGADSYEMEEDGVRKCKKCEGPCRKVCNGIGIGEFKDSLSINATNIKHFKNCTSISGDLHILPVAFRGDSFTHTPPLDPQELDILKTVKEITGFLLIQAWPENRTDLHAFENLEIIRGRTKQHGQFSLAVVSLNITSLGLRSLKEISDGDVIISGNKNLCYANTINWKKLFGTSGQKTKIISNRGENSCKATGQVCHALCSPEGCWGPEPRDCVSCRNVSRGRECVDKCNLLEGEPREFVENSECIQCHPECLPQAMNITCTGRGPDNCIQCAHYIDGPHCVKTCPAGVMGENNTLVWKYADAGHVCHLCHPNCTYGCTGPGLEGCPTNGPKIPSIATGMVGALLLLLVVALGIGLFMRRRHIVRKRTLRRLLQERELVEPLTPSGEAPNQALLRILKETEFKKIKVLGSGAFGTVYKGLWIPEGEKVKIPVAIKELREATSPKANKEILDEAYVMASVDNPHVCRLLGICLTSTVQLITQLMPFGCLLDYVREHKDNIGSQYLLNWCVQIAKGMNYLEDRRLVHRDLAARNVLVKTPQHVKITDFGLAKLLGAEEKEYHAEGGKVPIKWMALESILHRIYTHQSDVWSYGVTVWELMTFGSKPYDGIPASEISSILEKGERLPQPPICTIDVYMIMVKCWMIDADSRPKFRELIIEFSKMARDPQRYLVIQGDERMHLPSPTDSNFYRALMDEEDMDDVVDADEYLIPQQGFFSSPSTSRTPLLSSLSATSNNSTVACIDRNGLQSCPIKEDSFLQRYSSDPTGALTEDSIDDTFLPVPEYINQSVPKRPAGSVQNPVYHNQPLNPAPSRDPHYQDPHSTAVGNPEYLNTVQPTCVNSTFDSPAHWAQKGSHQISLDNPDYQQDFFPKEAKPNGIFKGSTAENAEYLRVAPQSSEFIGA

For the compound `COc1cc(Nc2ncnc(-n3c(NC4c5ccccc5CC4O)nc4ccccc43)n2)cc(OC)c1OC` (stereo not shown) [Compound 579], the IC50 is > 8.56 µM and < 761 nM [lines of one column].
